# The whole screen tested about 310,000 compounds, of which about 14,000 (4.5%) showed an effect of 50% or more. The effect is printed as a negative number. This is one part of the list.
# Biological target: human ether-à-go-go-related gene (hERG) potassium channel (human, UniProt Q12809)
# Assay: primary screen, population patch clamp on CHO cells stably expressing hERG
# 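Also: peak tail current of the secondary pulse compared with the same well before compound.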
# Sequence of human ether-à-go-go-related gene (hERG) potassium channel (Q12809 whole entry, looked up): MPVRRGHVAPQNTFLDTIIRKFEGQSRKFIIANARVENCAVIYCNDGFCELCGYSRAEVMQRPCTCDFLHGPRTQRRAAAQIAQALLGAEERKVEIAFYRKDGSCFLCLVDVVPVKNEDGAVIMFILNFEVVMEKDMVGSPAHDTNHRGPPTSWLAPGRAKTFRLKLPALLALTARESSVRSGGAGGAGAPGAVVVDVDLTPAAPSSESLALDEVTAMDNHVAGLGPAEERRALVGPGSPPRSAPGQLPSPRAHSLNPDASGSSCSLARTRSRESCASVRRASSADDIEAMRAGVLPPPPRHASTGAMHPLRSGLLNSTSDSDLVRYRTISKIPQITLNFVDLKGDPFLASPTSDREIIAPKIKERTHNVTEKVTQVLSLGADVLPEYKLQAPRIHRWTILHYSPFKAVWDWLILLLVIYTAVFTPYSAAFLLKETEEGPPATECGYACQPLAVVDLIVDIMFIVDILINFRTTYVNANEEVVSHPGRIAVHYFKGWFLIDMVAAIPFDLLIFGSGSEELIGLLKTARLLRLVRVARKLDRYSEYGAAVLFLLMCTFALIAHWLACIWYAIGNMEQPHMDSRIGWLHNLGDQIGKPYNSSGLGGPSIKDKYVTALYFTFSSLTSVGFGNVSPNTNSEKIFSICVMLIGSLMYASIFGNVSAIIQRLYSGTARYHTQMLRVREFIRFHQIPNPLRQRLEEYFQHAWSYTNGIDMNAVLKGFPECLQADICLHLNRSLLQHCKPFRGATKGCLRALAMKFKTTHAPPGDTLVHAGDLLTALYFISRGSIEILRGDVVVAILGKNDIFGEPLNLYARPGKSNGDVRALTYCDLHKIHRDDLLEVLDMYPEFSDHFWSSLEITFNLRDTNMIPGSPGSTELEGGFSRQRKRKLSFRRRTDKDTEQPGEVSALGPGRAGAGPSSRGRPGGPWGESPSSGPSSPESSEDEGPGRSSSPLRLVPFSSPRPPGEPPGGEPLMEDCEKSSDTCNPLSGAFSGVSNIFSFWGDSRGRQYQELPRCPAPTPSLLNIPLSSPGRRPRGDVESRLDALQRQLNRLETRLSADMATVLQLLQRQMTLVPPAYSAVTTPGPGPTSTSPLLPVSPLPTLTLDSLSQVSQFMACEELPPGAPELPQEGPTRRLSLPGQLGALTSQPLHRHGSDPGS
row,Structure (SMILES),"hERG current change (%, negative = inhibition) at 10uM [%]"
1,Cc1nn(C(=O)c2cccnc2)c(C)c1C,0.855
2,CC(=O)c1ccc(N(C(=O)c2csnn2)C(C(=O)NC(C)(C)C)c2cccs2)cc1 (stereo not drawn),-49.5
3,CCOc1ccc(NC(=O)Cn2nnc(-c3ccccc3NC(=O)c3cccs3)n2)cc1,3.51
4,Cc1cc(/C=C(\C#N)C(=O)OCC#N)c(C)n1CC(C)C,-27.6
5,CCOC(=O)Cc1csc2nc3sc(C)c(C)c3c(=O)n12,-0.0665
6,CCOC(=O)c1c(NC(=O)c2ccnn2C)sc(C)c1C,17.6
7,O=C(Nc1cccc2ncccc12)c1ccc2c(c1)OCCO2,-12.5
8,Cc1cccc(C)c1NC(=O)C[N+](C)(C)CC(O)COc1cccc2ccccc12.[Cl-] (stereo not drawn),6.31
9,CSc1nc(C)cc(SCC(=O)N/N=C/c2ccccc2)n1,3.7
10,CN(C)S(=O)(=O)N1CCN(Cc2ccccc2)CC1,-0.578
11,Cn1cnnc1SCc1nc(N)nc(Nc2ccccc2)n1,14.5
12,Cc1cc(NC(=O)CN(C)CC(=O)Nc2ccc(F)c(F)c2F)no1,-1.16
13,COC(=O)c1cc(OC)c(OC)cc1NC(=O)c1ccc(OC)c(OC)c1,-4.57
14,Cc1ccc(SC2CC(=O)N(c3ccc4c(c3)OCCO4)C2=O)cc1 (stereo not drawn),5.66
15,COc1cc(NS(C)(=O)=O)c(OC)cc1NC(=O)c1ccccc1,-9.96
16,COc1ccc(NC(=O)COC(=O)CCNS(=O)(=O)c2ccccc2)cc1OC,23.2
17,CCN1CCN(c2nc(N)c([N+](=O)[O-])c(Nc3ccc(C)cc3)n2)CC1,-68.9
18,CCC1Nc2ncnc(N3CCOCC3)c2N(Cc2ccccc2)C1=O.O=C(O)C(F)(F)F (stereo not drawn),4.69
19,Cc1cc(C)cc(NC(=O)CSc2nnc(-c3ccccc3)n2N)c1,6.38
20,COc1ccc(NC(=O)c2cccc(Oc3ccccc3)c2)cn1,3.97
21,CCCc1nnc(SCC(=O)N2CCCCC2C)n1CCCOC (stereo not drawn),-0.164
22,CC(OC(=O)C1CCC1)C(=O)Nc1cc(Cl)cc(Cl)c1 (stereo not drawn),-0.428
23,COc1ccc(-n2c(=O)c3c4c(sc3n(Cc3cccc(F)c3)c2=O)CN(C(C)=O)CC4)c(OC)c1,-5.37
24,CN(C)C(=O)c1ccc(NC(=O)CC2SC(N3CCCC3)=NC2=O)cc1 (stereo not drawn),20.7

# Source: publication PMC4336329 (PLoS ONE, 2015)
